# In the supplement of paper PMC7826260:
# Some of the results follow. The data describe in vitro nicking of single-stranded DNA by Rep domains (1 h at 37 °C, 3 µM enzyme); the outer parts of the 90-letter strands are left off. The score is log2 (uncut reads / reads without enzyme); uncut sequences lie near 0, cut ones below; no hit call is given. The scaling is to total reads; uncut strands gain when others are lost, and binding without cutting may add a little.
# Legend:
# Assay in all cases: uncleaved DNA left, log2 of reads against the no-enzyme library (log2 ratio); higher = less cleavage (more negative = more Rep cleavage of the k-mer); sequences stand for … in CTCGTCCG…ACCGGAGA
# [1] = test system: T1, Rep nickase domain of Muscovy duck circovirus
# T1 sequence (protein, residues 1-111, tag omitted): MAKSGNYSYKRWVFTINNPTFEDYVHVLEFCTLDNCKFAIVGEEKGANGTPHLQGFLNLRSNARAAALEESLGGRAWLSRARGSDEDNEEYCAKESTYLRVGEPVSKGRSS
# Method: (§1)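 A pool of 90-nt single-stranded DNAs with seven random bases just before the constant AC of the nick site (name = the seven bases) was cut by 3 µM recombinant His6-SUMO-tagged Rep nickase domain (300 nM DNA, 50 mM HEPES pH 8.0, 50 mM NaCl, 1 mM MnCl2, 1 h, 37 °C, three replicates). Uncut DNA was amplified and sequenced.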
# [2] = test system: T2, Rep nickase domain of banana bunchy top virus
# T2 sequence (protein, residues 1-94, tag omitted): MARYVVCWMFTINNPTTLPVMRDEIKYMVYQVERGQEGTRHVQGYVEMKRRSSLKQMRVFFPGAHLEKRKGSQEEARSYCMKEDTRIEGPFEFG
# Method: as §1
# [3] = test system: T3, Rep nickase domain of cabbage leaf curl virus
# T3 sequence (protein, residues 1-116, tag omitted): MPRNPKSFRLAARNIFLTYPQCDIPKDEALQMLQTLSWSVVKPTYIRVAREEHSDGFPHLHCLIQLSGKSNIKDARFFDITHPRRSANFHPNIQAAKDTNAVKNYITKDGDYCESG
# Method: as §1
# [4] = test system: T4, Rep nickase domain of chickpea chlorotic dwarf virus
# T4 sequence (protein, residues 1-124, tag omitted): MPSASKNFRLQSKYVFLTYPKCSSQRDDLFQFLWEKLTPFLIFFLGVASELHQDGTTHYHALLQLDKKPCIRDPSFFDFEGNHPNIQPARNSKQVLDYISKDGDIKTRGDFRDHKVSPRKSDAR
# Method: as §1
# [5] = test system: T5, Rep nickase domain of faba bean necrotic yellows virus
# T5 sequence (protein, residues 1-98, tag omitted): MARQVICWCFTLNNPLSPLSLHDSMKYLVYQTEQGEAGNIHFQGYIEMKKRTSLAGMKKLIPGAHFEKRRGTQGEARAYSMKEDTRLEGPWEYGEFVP
# Method: as §1
# [6] = test system: T6, Rep nickase domain of maize striate mosaic virus
# T6 sequence (protein, residues 1-117, tag omitted): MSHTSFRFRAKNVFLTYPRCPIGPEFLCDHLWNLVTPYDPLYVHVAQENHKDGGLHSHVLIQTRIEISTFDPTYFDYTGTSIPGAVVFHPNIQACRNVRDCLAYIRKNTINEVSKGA
# Method: as §1
# [7] = test system: T7, Rep nickase domain of porcine circovirus 2
# T7 sequence (protein, residues 2-116, tag omitted): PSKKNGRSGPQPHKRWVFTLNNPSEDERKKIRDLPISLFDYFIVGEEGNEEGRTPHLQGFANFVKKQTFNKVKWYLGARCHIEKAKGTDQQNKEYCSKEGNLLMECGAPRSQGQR
# Method: as §1
# [8] = test system: T8, Rep nickase domain of tomato golden mosaic virus
# T8 sequence (protein, residues 1-124, tag omitted): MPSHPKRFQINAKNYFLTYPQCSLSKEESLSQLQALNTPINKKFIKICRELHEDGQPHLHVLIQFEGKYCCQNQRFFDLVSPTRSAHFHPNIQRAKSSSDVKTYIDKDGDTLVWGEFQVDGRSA
# Method: as §1
# [9] = test system: T9, Rep nickase domain of tomato yellow leaf curl virus
# T9 sequence (protein, residues 1-136, tag omitted): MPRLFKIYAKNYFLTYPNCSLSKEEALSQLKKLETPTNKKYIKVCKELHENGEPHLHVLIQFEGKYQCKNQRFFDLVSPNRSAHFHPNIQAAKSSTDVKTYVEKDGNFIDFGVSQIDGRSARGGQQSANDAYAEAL
# Method: as §1
# [10] = test system: T10, Rep nickase domain of wheat dwarf virus
# T10 sequence (protein, residues 1-137, tag omitted): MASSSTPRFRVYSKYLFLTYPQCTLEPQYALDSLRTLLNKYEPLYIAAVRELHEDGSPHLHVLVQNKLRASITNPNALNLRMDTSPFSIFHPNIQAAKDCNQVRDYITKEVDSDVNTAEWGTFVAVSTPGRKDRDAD
# Method: as §1
Sequence,uncleaved DNA left (log2) [1],uncleaved DNA left (log2) [2],uncleaved DNA left (log2) [3],uncleaved DNA left (log2) [4],uncleaved DNA left (log2) [5],uncleaved DNA left (log2) [6],uncleaved DNA left (log2) [7],uncleaved DNA left (log2) [8],uncleaved DNA left (log2) [9],uncleaved DNA left (log2) [10]
ACGTGTT,-2.9,-0.613,-0.903,-1.94,-1.08,-0.105,-3.37,-0.145,-0.0273,-0.622
TCTCTAG,0.0236,-0.152,-0.446,-0.839,-0.0899,-1.19,0.0629,0.0675,-0.0153,-0.124
CTGGATC,0.133,-0.0605,0.192,0.825,0.0803,0.908,0.00549,0.0285,-0.0405,0.0135
AGTTCTC,-0.17,-0.11,-0.0237,0.128,-0.0888,-0.168,-0.749,-0.0604,-0.109,-0.0673
ACAAAAT,0.00949,-0.0779,-0.196,-0.703,0.0594,-0.696,0.0937,0.161,-0.0827,0.0256
TCTTTTC,-0.07,-0.172,0.0894,-0.363,-0.0694,-0.729,-0.0185,-0.209,-0.064,-0.0694
CATGTGG,0.08,-0.0658,-0.242,-0.119,-0.105,-0.835,-0.0439,-0.0117,-0.0864,-0.168
ACGTTGT,-0.0016,-0.0597,-0.341,-0.441,-0.0352,-0.796,-0.577,0.0895,-0.0572,-0.0713
ATCCATT,0.0352,0.0741,-0.11,-1.85,0.131,-1.02,-1.83,-0.0626,0.117,0.0516
TACCCGT,0.0166,-0.0815,-0.556,-2.26,-0.0245,-0.958,-0.738,-0.0857,0.0204,-0.0458
ACCGGAA,0.0534,0.19,0.221,0.507,0.0301,0.112,0.223,0.0299,0.0181,0.0978
GATTCAA,-0.0964,0.131,0.138,0.729,-0.103,1.04,-0.0471,0.00612,0.0949,0.072
TACCGGA,-0.14,-0.0733,0.0843,0.191,0.0486,0.0537,-0.0753,-0.00287,-0.0707,-0.0651
GAACCAG,-0.207,-0.0507,-0.273,-0.568,-0.071,-0.743,-0.278,-0.118,0.0219,-0.0569
GACATAG,-0.0245,-0.031,-0.601,-0.324,-0.0329,-1.03,0.106,-0.0515,0.0254,-0.0697
GGTGAAC,0.0825,0.0389,0.723,1.64,-0.0125,2.09,0.192,0.0999,0.034,0.129
CGACCGT,-0.00864,-0.0607,0.108,0.149,0.00667,-0.167,-0.0375,0.0202,0.04,0.0327
GAGCGTT,0.044,-0.104,-0.0146,-0.138,-0.0109,0.381,-2.54,-0.101,-0.0319,-0.00367
ATAGTTC,-0.00337,-0.0855,-0.129,-1.85,-0.047,-0.728,-0.0514,-0.00971,-0.162,-0.37
GGCTCAT,0.105,0.0971,0.854,1.89,0.0158,2.23,0.0981,0.0654,0.105,0.171

Sequence,uncleaved DNA left (log2) [1],uncleaved DNA left (log2) [2],uncleaved DNA left (log2) [3],uncleaved DNA left (log2) [4],uncleaved DNA left (log2) [5],uncleaved DNA left (log2) [6],uncleaved DNA left (log2) [7],uncleaved DNA left (log2) [8],uncleaved DNA left (log2) [9],uncleaved DNA left (log2) [10]
AACTTGT,-1.29,-0.462,-0.378,-1.13,-0.0955,-0.992,-3.55,-0.118,0.0397,-0.0747
GCTTCGG,0.0212,0.0624,0.281,1.12,-0.0272,1.24,0.159,-0.044,-0.144,-0.0508
TTCAGCT,-0.0826,-0.119,-0.364,-1.46,-0.0215,-1.1,-0.0494,-0.0864,-0.0209,-0.0882
TTACCCT,-0.35,-0.224,-0.422,-2.61,-0.159,-0.505,-2,-0.254,-0.143,-0.198
CTCGCGT,-0.0691,-0.0248,-0.728,-0.857,0.00676,-0.856,0.215,-0.045,-0.01,-0.049
AGTACAA,0.169,0.0653,0.228,0.338,0.00141,0.197,-0.395,0.00177,0.114,0.185
CTGGTTT,0.02,-0.175,0.203,-0.963,0.0708,0.419,-0.0133,-0.0328,-0.0124,-0.0518
AGAAACA,0.12,0.117,0.302,-1.04,0.235,0.0996,0.151,0.242,0.0762,0.157
TAGATAG,0.0536,0.0107,-0.736,-0.623,0.125,-1.06,0.103,0.0906,0.089,0.0186
CCGCACA,0.0731,0.0385,-0.0804,-0.953,-0.00811,-0.236,0.0275,-0.0606,-0.0497,0.0234
AGATTGT,-0.118,-0.0909,-0.304,-0.28,0.0142,-0.879,-0.505,0.0249,0.00283,-0.0367
ACACCCG,-0.0638,-0.031,-0.879,-0.278,0.0373,-0.83,0.067,-0.0724,-0.128,-0.122
CAACCGG,-0.111,-0.0271,0.122,0.858,-0.27,0.81,-0.047,-0.00975,-0.155,-0.0278
GCCAACG,-0.199,-0.134,-0.765,-0.607,-0.265,-1.08,0.0481,-0.117,-0.198,-0.211
TTGGAGT,-0.0704,-0.174,-0.44,-0.401,-0.142,-0.585,-0.04,-0.146,-0.265,-0.183
CTGTGTG,-0.272,-0.185,-0.898,-0.33,-0.0742,-1.07,0.064,-0.232,-0.0731,-0.324
CTTGGGC,0.045,0.103,-0.249,-0.205,0.0348,-0.794,0.21,0.051,0.206,-0.0293
TTCCGCT,-0.142,-0.214,-0.375,-1.22,-0.0941,-1.3,-0.166,-0.226,-0.209,-0.168
GACGGTC,-0.089,-0.128,0.292,0.604,-0.0115,0.873,0.0219,-0.0362,-0.125,-0.05
TAAAACG,0.0529,-0.00423,-0.993,-1.75,0.0168,-1.24,0.155,0.0285,0.0277,0.0267

Sequence,uncleaved DNA left (log2) [1],uncleaved DNA left (log2) [2],uncleaved DNA left (log2) [3],uncleaved DNA left (log2) [4],uncleaved DNA left (log2) [5],uncleaved DNA left (log2) [6],uncleaved DNA left (log2) [7],uncleaved DNA left (log2) [8],uncleaved DNA left (log2) [9],uncleaved DNA left (log2) [10]
CGACGGA,-0.0508,0.0159,0.0197,0.621,-0.0452,1.44,0.0423,-0.0563,-0.0833,-0.0272
GCGAAGT,0.0115,-0.0081,0.147,0.39,-0.022,0.189,-0.0621,-0.0923,-0.0568,-0.0634
CTACTCA,0.0637,0.124,-0.00676,-1.99,0.0375,-0.464,-0.124,0.00892,0.102,0.0823
TGAAATT,0.0919,0.101,0.236,-1.93,0.158,0.192,-0.608,0.0777,0.208,0.0613
CCACCTT,-0.0967,-0.0565,-0.244,-2.34,-0.0476,-0.404,-0.499,-0.0436,0.0717,-0.125
TCAGAGA,0.0707,0.079,0.458,0.809,0.0271,0.105,0.137,0.132,0.0466,0.137
TGTTCCT,-0.52,-0.0303,0.211,-0.75,-0.0361,0.878,-0.634,-0.09,0.108,-0.0102
TCCGCTC,-0.0412,0.00566,0.115,-0.279,0.121,-0.352,-0.0445,-0.163,-0.183,-0.193
GTTCGAT,0.131,0.141,0.339,0.963,0.069,1.66,0.138,0.0959,0.145,0.122
TATACTG,0.00597,-0.0419,0.0352,0.354,0.04,1.09,0.0227,0.0109,-0.0941,-0.0576
GCACGTA,0.083,0.0212,-0.0513,-0.0747,-0.0237,-0.328,0.107,-0.00106,0.0638,-0.0146
GTTTAGA,-0.0121,-0.0409,0.254,0.788,0.0298,1.52,0.132,0.0322,0.0364,0.0112
ATAAAGA,-0.00892,-0.0902,-0.144,-0.27,-0.0154,-1.19,0.0886,-0.0287,-0.107,-0.131
CTCACAG,-0.0497,0.0476,-0.747,-0.956,-0.0604,-0.869,0.237,0.0684,0.0529,-0.124
ATCTATT,-3.31,-3.44,-1.22,-2.81,-1.06,-0.858,-3.63,-0.173,0.00435,-0.645
TCTGGAT,0.0221,0.0027,0.327,1.52,0.00156,1.83,0.249,0.189,-0.144,0.171
CCGTACA,0.0882,0.065,0.0344,-1.27,0.166,-0.184,-0.106,-0.0295,0.0236,0.00947
TCCCCCC,-0.22,-0.0388,0.0729,-0.298,-0.0256,-0.357,-0.517,-0.305,-0.192,-0.123
TAACGCG,0.0843,-0.0256,-0.729,0.209,-0.00973,-0.449,0.121,-0.031,0.0157,-0.0661
TGTTGGT,-0.853,-0.0195,0.0732,-0.0545,-0.0252,-0.26,-1.06,-0.09,0.0944,-0.0738
